From the supplement of paper PMC10126150
Sequences with one replicate were seen in a single cluster, so their values are uncertain.

What follows are sequences tested on ATP (assay: switch fluorescence ratio, 500 uM ATP over buffer (Cy3 cluster intensity, sum of 5 cycles each) (fold (ratio)); higher = stronger signal-on switching upon ATP binding; sequences stand for … in TCGTCGGCAGCGTCAGATGTGTATAAGAGACAGTTTTTTTTTTTTTTTTTTTTTTTTT…TC). Settings: aptamer strand: ATP DNA aptamer (quencher-CACCTGGGGGAGTATTGCGGAGGAAGG + anchor), 100 nM annealed; ATP concentration: 500 uM; one replicate.
Method in brief: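 Imaging in selection buffer was followed by imaging after 15 min with 500 uM ATP at 22 °C, for Cy3-labelled switching-strand clusters annealed to 100 nM quencher-labelled ATP aptamer on a modified Illumina MiSeq flow-cell. Five of these buffer/ATP cycles ran, separated by NaOH stripping and re-annealing. The fluorescence ratio per cluster is summed target-cycle over summed buffer-cycle Cy3 intensity, averaged per switch-domain sequence; clusters outside 100-1000 RFU were removed.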
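Further: ATP exposure 15 min at 22 °C before imaging.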

Sequence | switch fluorescence ratio
GATGGATCTA | 0.99
GATGGATGGT | 1.03
GATGGCAGAG | 0.989
GATGGCTCCG | 1.01
GATGGGCTGA | 0.982
GATGGTACTA | 0.948
GATGGTGCGT | 1.03
GATGGTTTTG | 0.988
GATGTCGCGA | 1.04
GATGTGAACT | 1.03
GATGTGGTCG | 0.984
GATGTTAAAA | 0.958
GATGTTAGCG | 0.956
GATGTTCCTT | 1
GATGTTGCAG | 0.912
GATTAAAATA | 1.07
GATTAAACTT | 1
GATTAACTAG | 0.965
GATTAAGCTT | 1.02
GATTACCACT | 1.02
GATTACGTAC | 1.64
GATTACTAAG | 0.981
GATTACTGTT | 1.08
GATTAGTCGA | 1
GATTATATAC | 1.1

Sequence | switch fluorescence ratio
GATTATCCAG | 1.01
GATTATGAGA | 1.03
GATTCAGTTC | 0.996
GATTCATTAA | 0.948
GATTCGGACT | 0.987
GATTCTAAGA | 1.02
GATTCTACTT | 1.06
GATTCTGCGG | 1.03
GATTGACATC | 1.06
GATTGATGAC | 1.02
GATTGCGGGT | 1.03
GATTGGCGTG | 1
GATTGGCTAC | 1.09
GATTGGGAAT | 1.01
GATTGGGCAG | 0.929
GATTGGGTG | 0.991
GATTGTTGTG | 1.02
GATTTACCCT | 1.21
GATTTAGGCG | 1.01
GATTTAGTCT | 1.06
GATTTATTA | 0.985
GATTTCCGAA | 0.96
GATTTCGGGG | 0.959
GATTTCTAGT | 0.981
GATTTCTCGC | 0.979

Sequence | switch fluorescence ratio
GATTTGAGG | 1.05
GATTTGGCAA | 0.996
GATTTTGGC | 1.06
GATTTTTTG | 0.996
GCAAAACCTA | 1.05
GCAAAACCTC | 1.01
GCAAAACGTT | 1.63
GCAAACAGCA | 1.04
GCAAATACAT | 1.04
GCAAATGGCT | 1.01
GCAAATGGGT | 1
GCAACACTGA | 1.1
GCAACAGAGT | 1.01
GCAACAGTG | 1.1
GCAACCCACT | 1.34
GCAACGGGGG | 0.997
GCAACGTGCT | 1.02
GCAACTATGG | 1.02
GCAACTGAGT | 1.02
GCAACTGGTG | 1.27
GCAAGAACCT | 1.72
GCAAGAAGCG | 1.02
GCAAGATTTG | 1
GCAAGCATAT | 1.11
GCAAGCCGTC | 0.987

Sequence | switch fluorescence ratio
GCAAGGCAA | 1.02
GCAAGGCCGG | 1.01
GCAAGGCGT | 1.04
GCAAGGGGAG | 1.03
GCAAGGTATA | 1.02
GCAAGGTATT | 1.01
GCAAGTCCCG | 1.08
GCAAGTCCGG | 1.04
GCAAGTGTCC | 1.22
GCAAGTTAAA | 1.04
GCAATAGTGT | 1.42
GCAATATAT | 1.18
GCAATATGAG | 5.01
GCAATCCCAG | 2.6
GCAATCGTCA | 1.15
GCAATGCAAC | 1.47
GCAATGGTGC | 1.26
GCAATTGGAG | 1
GCACAGTTGT | 0.98
GCACATCCTC | 1.1
GCACATTAGA | 1.04
GCACATTATA | 1.02
GCACCGGATT | 1.01
GCACCTATAG | 1.03
GCACCTTCAC | 2.07
